From the supplement of paper PMC12645437, “Orthogonal IMiD-Degron Pairs Induce Selective Protein Degradation in Cells” (ACS Chemical Biology, 2025)
The other results are listed elsewhere or left out.

B1: Q9UKT9 (peptide)
chain: FRCPQCGAIFTQKGNLLRHIKL
B2: Q9UKT9 (peptide)
chain: FSCPICGHLFTQKGNLLRHIKL
B3: Q9UKT9 (peptide)
chain: LQCNQCGFCCTQKGNLLRHIKL
B4: Q9UKT9 (peptide)
chain: FCCPICGRSFTQKGNLLRHIKL
B5: Q9UKT9 (peptide)
chain: FICSVCGHWFTQKGNLLRHIKL
B6: Q9UKT9 (peptide)
chain: FTCEICGHCFTQKGNLLRHIKL
B7: Q9UKT9 (peptide)
chain: FQCEICGAMFTQKGNLLRHIKL
B8: Q9UKT9 (peptide)
chain: FHCPQCGAKFTQKGNLLRHIKL
B9: Q9UKT9 (peptide)
chain: FICPICGAMFTQKGNLLRHIKL
B10: Q9UKT9 (peptide)
chain: FFCEICGHSFTQKGNLLRHIKL
B11: Q9UKT9 (peptide)
chain: FLCNQCGHGFTQKGNLLRHIKL
B12: Q9UKT9 (peptide)
chain: FTCPQCGAQFTQKGNLLRHIKL
B13: Q9UKT9 (peptide)
chain: FGCEICGRSFTQKGNLLRHIKL
B14: Q9UKT9 (peptide)
chain: FSCEICGAAFTQKGNLLRHIKL

What follows are sequences tested against no compound (DMSO) (assay: log2 fold change of degron read counts, EGFP-low vs EGFP+ sorted cells; higher = lower degron-EGFP level without compound (poor expression or instability)). Settings: compound: DMSO control; 18 h.
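Further: jurkat cells carrying a lentiviral library of mutant zinc finger degrons fused to EGFP plus mCherry, mCherry+ cells FACS sorted, degron abundance counted by next-generation sequencing.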

| Sequence | log2 fold change of degron read counts |
| --- | --- |
| B1 | -1.03 |
| B2 | -0.339 |
| B3 | 0.0806 |
| B4 | -0.392 |
| B5 | 0.133 |
| B6 | -2.55 |
| B7 | -1.98 |
| B8 | -0.605 |
| B9 | 0.627 |
| B10 | -0.833 |
| B11 | -0.145 |
| B12 | -0.324 |
| B13 | -1.51 |
| B14 | -1.57 |
